Reference: PubChem BioAssay AID463173 (ICCB-Longwood Screening Facility, Harvard Medical School, 2010)
Among all 52,000 compounds or so, about 4,300 (8.3%) were called active. No stated cut-off is given here; in the data, active means survival mostly below about 52% (no sharp cut-off); inactive means mostly above about 56%. The list shows a part of the results.

test system: DeltatarO mutant; experiment: growth inhibition of S. aureus wild type versus tarO mutant, primary screen, teichoic acid synthesis inhibitors, RN4220, OD600 (AID 463173); conditions: OD600, 18 h, stronger effect = lower value, screened at 18.75 µg/mL (by protocol)

Row | Compound | survival
1 | O=C(CCC1N=C2c3ccccc3N=C(SCc3ccccc3F)N2C1=O)NCc1ccc(F)cc1 (stereo not drawn) | inactive: 69%
2 | O=C(CNS(=O)(=O)c1ccc(Cl)cc1)NC1CCCC1 | active: 67%
3 | Cc1ccc2occ(CC(=O)N(Cc3ccc(C(C)C)cc3)C3CCS(=O)(=O)C3)c2c1 (stereo not drawn) | inactive: 66%
4 | O=C(Nc1ccc(Cl)c(C(F)(F)F)c1)C1CCN(S(=O)(=O)c2cccc3nonc23)CC1 | inactive: 89%
5 | Cc1cccn2c(=O)c(C(=O)NCCc3ccc(S(N)(=O)=O)cc3)c(O)nc12 | inactive: 51%
6 | Cc1ccccc1CSc1cn(CC(=O)N2CCCCCC2)c2ccccc12 | inactive: 68%
7 | O=C(CCOc1ccccc1)N(Cc1cccnc1)c1nc2c(F)cccc2s1 | inactive: 71%
8 | CCCCn1c(NCc2ccc(N(C)C)cc2)nc2ccccc21 | inactive: 52%
9 | O=C(O)Cn1ccc2cc(S(=O)(=O)N3CCCCCC3)ccc21 | inactive: 85%
10 | COc1ccc(CNC(=O)COCc2cc(-c3cccs3)on2)cc1 | inactive: 107%
11 | COc1ccc(S(=O)(=O)N(CC(=O)Nc2cccnc2)c2ccc(Cl)cc2)cc1 | active: 30%
12 | COc1ccc(CNC(=O)Cn2c(=O)cc(-c3ccccc3)c3c(C)nn(C)c32)cc1 | inactive: 67%
13 | COc1ccc(NC(=O)Cn2c(=O)ccc3cc(S(=O)(=O)N4CCCC4)ccc32)cc1Cl | inactive: 106%
14 | Cc1cccc(N2CCN(C(=O)Cn3nc(Cc4cccnc4)c4ccccc4c3=O)CC2)c1C | inactive: 81%
15 | FC(F)(F)c1cccc(N2CCN(CCN3CCOCC3)CC2)c1 | inactive: 85%
16 | Clc1cccc(-n2ncc3c(NCCCn4ccnc4)ncnc32)c1 | inactive: 84%
17 | CCc1ccc2oc(C(=O)Nc3ccccc3C(=O)OC)cc(=O)c2c1 | inactive: 57%
18 | O=C(O)C1CCCN1S(=O)(=O)c1ccc2ccccc2c1 (stereo not drawn) | inactive: 112%
19 | CC(C)(C)c1ccc(-c2nc(SCC(=O)Nc3ccccc3F)n3[nH]c(=O)cc3n2)cc1 | inactive: 95%
20 | CCCn1c(CCC(=O)Nc2ccc(OCC)cc2)nc2cccnc21 | inactive: 93%
21 | COc1ccc2nc(SCC(=O)Nc3ccc(N4CCCC4)cc3)c(C#N)cc2c1 | inactive: 89%
22 | CC1CCc2c(sc(NC(=O)C3c4ccccc4Oc4ccccc43)c2C#N)C1 (stereo not drawn) | inactive: 51%

Row | Compound | survival
23 | Cc1ccc(-n2c(=O)c3c(C)c(C)sc3n(CC(=O)NCc3ccccc3)c2=O)cc1C | inactive: 80%
24 | CCOC(=O)c1c(C)oc2nc(C)nc(NCc3ccc(F)cc3)c12 | inactive: 88%
25 | COc1ccc(C2=CC(c3ccccc3Cl)n3nc(-c4ccc(Cl)cc4)nc3N2)cc1 (stereo not drawn) | inactive: 53%
26 | COC(=O)c1scc(-c2ccc(C)cc2)c1S(=O)(=O)N1CCN(c2ccc(C(C)=O)cc2)CC1 | inactive: 77%
27 | Cc1ccc(Cl)cc1N1CCN(C(=O)Cn2cnc3sc(C)c(S(=O)(=O)N4CCC(C)CC4)c3c2=O)CC1 | active: 47%
28 | COc1ccccc1CNC(=O)CCS(=O)(=O)c1ccc2c(c1)CCN2C(C)=O | inactive: 91%
29 | Cc1nc2nc(NCc3ccc(Cl)cc3)[nH]n2c(=O)c1Cc1ccccc1 | active: 40%
30 | Cc1ccc(-n2ncc3c(NCCC4=CCCCC4)ncnc32)cc1 | active: 20%
31 | COC(=O)NCC(c1cccnc1)N1CCN(c2ccc(F)cc2)CC1 (stereo not drawn) | inactive: 83%
32 | Cc1ccc(Cl)cc1NC(=O)C(C)n1nc(-c2ccccc2)ccc1=O (stereo not drawn) | active: 20%
33 | CCc1ccccc1NC(=O)CCNS(=O)(=O)c1ccc2c(c1)CCN2C(=O)C1CC1 | inactive: 92%
34 | CC(C)OC(=O)CC12CN(C)CC(CC(=O)OC(C)C)(CN(C)C1)C2=O | inactive: 79%
35 | COc1ccc(C(=O)Nc2nnc(SCc3cc(=O)c4cc(C)cc(C)c4[nH]3)s2)cc1 | inactive: 94%
36 | Cc1ccc(CNC(=O)CCCn2c(=O)c3ccccc3n(CC(=O)Nc3ccc(C)c(C)c3)c2=O)cc1 | inactive: 78%
37 | C=CCNC(=O)C1CC(=O)N(c2ccc(OCC(=O)Nc3ccc(F)c(Cl)c3)cc2)C1 (stereo not drawn) | inactive: 89%
38 | CCOc1ccc(CCNC(=O)CCCn2c(=O)c3cccn3c3ccccc32)cc1 | inactive: 72%
39 | Cc1ccc2c(CC(=O)Nc3ccc(S(=O)(=O)N4CCCCC4)cc3)coc2c1 | inactive: 60%
40 | Cc1ccc(Cl)cc1NC(=O)Cn1c(=O)oc2cc(S(=O)(=O)N3CCCC3)ccc21 | inactive: 81%
41 | C=CCn1c(C)c(C=C(C#N)C#N)c2ccccc21 | inactive: 99%
42 | Cc1cc(C)c2c(=O)nc(SCc3ccccc3C)n(C3CC3)c2n1 | inactive: 90%
43 | Cc1ccc(-n2ncc3c(Nc4cccc(C)c4C)ncnc32)cc1 | inactive: 94%
44 | CCOc1ccccc1N(C)C(=O)C1CCCN(c2ncnc3c2nc2n3CCCCC2)C1 (stereo not drawn) | inactive: 83%

Row | Compound | survival
45 | CCC1=[N+](CC(=O)c2ccccc2)CCn2cccc21 | inactive: 110%
46 | COc1ccc(C(=O)OC2=C(C(=O)c3ccccc3)N(C)S(=O)(=O)c3ccccc32)cc1OC | inactive: 131%
47 | COc1ccccc1N1CCN(S(=O)(=O)c2c(C)sc3ncn(CC(=O)N(C)c4ccc(Cl)cc4)c(=O)c23)CC1 | inactive: 65%
48 | CCNC(=O)c1c(NC(=O)Cc2coc3cc(C)cc(C)c23)sc2c1CCCC2 | inactive: 69%
49 | O=C1CCCN1c1ccc(S(=O)(=O)N2CCCCC2)cc1 | inactive: 93%
50 | Oc1c(C(c2ccccc2F)N2CCN(Cc3ccccc3)CC2)sc2nc(-c3ccco3)nn12 (stereo not drawn) | inactive: 89%
51 | Cc1c(C(=O)N2CCC(c3nc4ccccc4s3)CC2)oc2ccc(Cl)cc12 | inactive: 72%
52 | CCOC(=O)c1c(C)c(-c2ccccc2)n(CC(=O)Nc2cc(C)ccc2OC)c1C | inactive: 66%
53 | Cc1ccccc1CN1CCC(CNc2ncnc3onc(-c4ccc(F)cc4)c23)CC1 | inactive: 109%
54 | COc1cc(NC(=O)NC(C)c2c(-n3cccc3)sc3c2CCCC3)cc(OC)c1OC (stereo not drawn) | inactive: 57%
55 | CCCCN(CC)CCNC(=O)c1cn(C)c(=O)c2c1c1ccccc1n2C | inactive: 65%
56 | CCc1cccc(-n2nnc(-c3nsc(NC(=O)c4cccs4)n3)c2C)c1 | active: -5%
57 | CC(=O)Nc1ccc2nc(-c3cc(C)ccc3C)[nH]c2c1 | inactive: 118%
58 | Cc1cc(N2CCC(C(N)=O)CC2)nc(-c2ccccc2)n1 | inactive: 96%
59 | Cc1ccc(Cl)cc1NC(=O)Cn1c(=O)n(CCC(=O)NCc2ccc3c(c2)OCO3)c(=O)c2sccc21 | active: 79%
60 | CCCC(=O)Nc1nnc(S(=O)(=O)N2CCCCCC2)s1 | inactive: 91%
61 | COc1ccc(C2C(C(=O)Nc3ccccc3)=C(C)Nc3nc(SCC(=O)c4ccc(C)cc4)nn32)cc1 (stereo not drawn) | inactive: 71%
62 | CC1=C(c2ccc(F)cc2)S(=O)(=O)N=C1N1CCC(C(=O)NCCc2ccccc2C)CC1 | inactive: 85%
63 | CC(C)Cc1ccc(S(=O)(=O)N2CCN(Cc3noc(CCC(=O)N4CCCCC4)n3)CC2)cc1 | inactive: 101%
64 | O=C(NCc1ccc(Cl)cc1)c1ccc(CN2CCOCC2)cc1 | inactive: 73%
65 | Cc1ccc2[nH]c(-c3ccccc3)c(CN(C)C)c(=O)c2c1 | inactive: 98%
66 | CCOC(=O)c1cn(CC(=O)Nc2ccc(OC)cc2OC)nn1 | inactive: 83%

Row | Compound | survival
67 | Fc1ccc(Nc2ncnc3onc(-c4ccc(Cl)cc4)c23)cc1Cl | inactive: 72%
68 | CCOc1ccc(CCNC(=O)c2ccc3c(c2)N(Cc2ccc(C)cc2)CCS3)cc1 | inactive: 78%
69 | O=C(C1CCCN(S(=O)(=O)c2ccc(Br)s2)C1)N1CCN(c2ccccc2F)CC1 (stereo not drawn) | inactive: 77%
70 | CCN(CC)CCCNc1sc(S(=O)(=O)c2ccccc2)nc1S(=O)(=O)c1ccc(Cl)cc1 | inactive: 75%
71 | CCOC(=O)c1c(C)[nH]c(CCC(=O)NC(C)c2ccccc2)c1C (stereo not drawn) | inactive: 94%
72 | COc1ccc(C)cc1NC(=O)NC(C)c1c(-n2cccc2)sc(C)c1C (stereo not drawn) | inactive: 44%
73 | CCN(C(=O)c1sc2nc3n(c(=O)c2c1C)CCCCC3)c1ccc(OC)cc1 | inactive: 58%
74 | COc1cc(OC)c(NC(=O)Nc2cccc(OCc3cc(=O)n4ccccc4n3)c2)cc1Cl | inactive: 66%
75 | Cc1cccc(C)c1NCc1nnc(SCC#N)n1-c1ccccc1 | inactive: 92%
76 | Cc1ccc2[nH]c(=O)c(CN(Cc3ccccc3)C(=O)c3ccco3)cc2c1 | inactive: 103%
77 | COc1ccc(-n2cc(-c3ccccc3)c3c(Nc4ccc(OC)c(OC)c4)ncnc32)cc1 | inactive: 100%
78 | CCOc1cc2c(cc1OCC)C(CC(=O)O)N(C(=O)Nc1ccccc1C(F)(F)F)CC2 (stereo not drawn) | inactive: 67%
79 | Cc1cc(C)nc(-n2nc(C)c3c2NC(=O)CC3c2cccc(O)c2)n1 (stereo not drawn) | inactive: 72%
80 | Cc1cc2nn(-c3ccc(F)cc3)nc2cc1NC(=O)c1cccc2c(Cl)cccc12 | inactive: 59%
81 | C#CCn1c(O)c(N=NC(=O)c2ccccc2-n2cccc2)c2ccccc21 | inactive: 60%
82 | O=C(O)C1C2C=CC(C2)C1C(=O)NC1CCN(Cc2ccccc2)CC1 (stereo not drawn) | inactive: 76%
83 | CC1(c2ccccc2)CC(C)(C)N(C(=O)c2cccc(Cl)c2)c2ccccc21 (stereo not drawn) | active: 8%
84 | Cc1cccc(N2C(=O)NC(=O)/C(=C\c3cn(CC(=O)NCc4ccco4)c4ccccc34)C2=O)c1 | inactive: 97%
85 | c1ccc2c(c1)COC(CCN1CCN(CCC3OCc4ccccc4CO3)CC1)OC2 | inactive: 85%
86 | COc1ccccc1NC(=O)c1ccc(CN2C(=O)C(C)=C(c3ccc(C)c(C)c3)S2(=O)=O)cc1 | inactive: 83%
87 | Cc1noc(-c2ccc(NC(C)c3ccccc3)c([N+](=O)[O-])c2)n1 (stereo not drawn) | inactive: 70%
88 | CCOC(=O)CC(=O)CSc1nc2ccsc2c(=O)n1Cc1ccccc1 | inactive: 118%
